About 740 (0.21%) of roughly 360,000 compounds were called active. This list was built around the results that the source calls inconclusive (neither active nor inactive); the mix of calls is not that of the screen. Calls follow the shape of the dose curve; as a rule, active = well fitted inhibition curve with a large enough effect; inconclusive = small, poorly fitted or top-dose-only effect; inactive = no such curve, though single readings can be large or run the other way. No potency is given beside an inconclusive call; the fits are too rough.
Tested on: Plasmodium falciparum AMA1 (3D7) - RON2 peptide interaction
Test: qHTS for Inhibitors of AMA1-RON; Towards Development of Antimalarial Drug Lead: Primary Screen; also: nearly all actives have a fitted effect of over 45% in size;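 as to activity change, negative = inhibition: 0% = vehicle wells and -100% = peptide control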
Details: AlphaScreen AMA1-biotinylated RON2 peptide binding; activity change, negative = inhibition: at 58.2 µM (top of the series) unless noted
How it was run: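 AMA1 (3D7) with his tag at 25 nM final met compounds first, then biotinylated RON2 peptide at 25 nM; detection used donor plus acceptor beads, 10 µg/mL apiece, read by AlphaScreen after 30 min at room temperature.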
Potency is read from the fitted curve at half-maximal effect; tags tell the direction and shape of the fitted curve.

SMILES	Potency	activity change, negative = inhibition
CN(C)CC/C=C1/c2cc(F)ccc2Sc2ccc(Cl)cc21	inconclusive [inhibitor, partial curve]	–
FC(F)(F)c1cccc(-n2cc(-c3ccccc3)[nH]c2=S)c1	–	inactive: 56%
COc1ccc(N=Nc2ccc(N)nc2N)cc1	inconclusive [inhibitor, partial curve, poor fit]	–
O=C(Nc1ccnn1C1CCN(C/C=C/c2ccccc2)CC1)C1CCCC1	–	inactive: 0%
CC(C)c1ccc2nc(NC(=O)C3CC3)sc2c1	–	inactive: -2.46%
C[C@H](CO)N1C[C@H](C)[C@@H](CN(C)S(=O)(=O)c2cccs2)Oc2ccc(NC(=O)Nc3ccc4c(c3)OCO4)cc2C1=O	inconclusive [inhibitor, single point]	–
CCOC(=O)C1CCN(C2=C(NS(=O)(=O)c3ccc(Br)cc3)C(=O)c3ccccc3C2=O)CC1	active: 12.6 µM	–
CCC(C)(C)C(=O)Nc1ncc(S(=O)(=O)c2ccc([N+](=O)[O-])cc2)s1	inconclusive [inhibitor, partial curve]	–
CCN(CC)c1ccc(NC(=O)Nc2cccc3ccccc23)cc1	inconclusive [inhibitor, partial curve]	–
O=[N+]([O-])c1ccc2c(c1N1CCCCC1)=NC1(CCCCC1)[N+]=2[O-]	inconclusive [inhibitor, single point]	–
CCOC(=O)C1CCN(Cc2ccc(-c3ccccc3)cc2)CC1	inconclusive [inhibitor, partial curve]	–
O=C(Oc1cc(Cl)ccc1Cl)c1ccc(N2CCOCC2)c([N+](=O)[O-])c1	inconclusive [inhibitor, partial curve]	–
Cc1cc(C)nc(Nc2ccc(N3CCCC3)cc2)n1	active: 31.6 µM	–
COc1cccc(NC(=O)c2ccc3c(c2)C(=O)N(CC2CCCO2)C3=O)c1 (configuration not stated)	–	inactive: 7.56%
Cc1ccc(NC(=O)CCNC(=O)c2ccco2)cc1F	inconclusive [inhibitor, full curve, poor fit]	–
Brc1ccc([C@H]2CN3CCSC3=N2)cc1	inconclusive [inhibitor, partial curve]	–
CSCC[C@H]1COC[C@@H](Cc2ccccc2)N1c1ccccc1	inconclusive [inhibitor, partial curve]	–
O=C(/C=C/c1ccccc1)NC(=S)NNC(=O)Cc1cccs1	inconclusive [inhibitor, partial curve]	–
CCn1c2ccccc2c2cc(NC(=O)CN(C)CC(=O)Nc3ccc(N4CCOCC4)cc3)ccc21	inconclusive [inhibitor, single point]	–
CNC(=S)NNC(=O)Cc1ccccc1	–	inactive: 77.3%
CC(=O)c1c2c3c(cccc3n(C)c1=O)C(=O)c1ccccc1-2	–	inactive: -9.55%
C/C(=C\C(=O)c1c(O)cc(C)oc1=O)N(C)C	–	inactive: 1.62%
Cn1ccnc1C(=O)c1cccc(Br)c1	inconclusive [inhibitor, full curve]	–
COC(=O)c1ccc(-n2c(C)cc(C(=O)CSc3ccc(NC(C)=O)cc3)c2C)cc1	inconclusive [inhibitor, single point]	–

SMILES	Potency	activity change, negative = inhibition
COc1ccc(-n2c(=O)c3c4c(sc3n(CC(=O)Nc3cc(C)[nH]n3)c2=O)CCC4)c(OC)c1	inconclusive [inhibitor, partial curve]	–
O=C(O)c1ccccc1NS(=O)(=O)c1ccc2ccccc2c1	inconclusive [inhibitor, partial curve, poor fit]	–
CCOc1ccc(-c2cn(-c3ccc(OC)cc3)c(SC)n2)cc1	inconclusive [inhibitor, partial curve]	–
Cn1nnnc1SCC(=O)Nc1cc(S(=O)(=O)N2CCCCC2)ccc1Cl	inconclusive [inhibitor, partial curve]	–
CCOC(CNC(=O)c1cccn2c(=O)c3cc(Cl)ccc3nc12)OCC	–	inactive: 3.23%
Cc1c(Br)cccc1NC(=O)c1sccc1-n1cccc1	–	inactive: -12%
CC(C)c1cc(NC(=O)CCl)on1	–	inactive: 21.8%
N=C1C=CC(=C(c2ccc(N)cc2)c2ccc(N)cc2)C=C1	active: 14.1 µM	–
CCOC(=O)c1nc(NCCc2ccccc2)sc1C	inconclusive [inhibitor, partial curve]	–
Cc1nc(N)sc1N=Nc1ccccc1C(F)(F)F	inconclusive [inhibitor, partial curve]	–
COc1ccc(N2CCN(c3nc(NCCc4ccc(OC)c(OC)c4)nc(OC)n3)CC2)cc1	inconclusive [inhibitor, partial curve]	–
N#Cc1cc2ccccc2n2nnnc12	–	inactive: 14.7%
N#C/C(=C\c1ccc(O)c(O)c1)C(=O)c1ccc(O)c(O)c1	inconclusive [inhibitor, full curve, poor fit]	–
CNC(=O)c1ccc(-c2nc(-c3ccccc3)cs2)cc1	–	inactive: -1.81%
NC12CC3CC(CC(C3)C1)C2	–	inactive: 0%
Cc1ccccc1CN1CCN(C/C=C/c2ccccc2)CC1	inconclusive [inhibitor, single point]	–
COc1ccc(/C=C/C(=O)c2cc(Br)ccc(=O)c2O)cc1	inconclusive [inhibitor, single point]	–
CCN(CC)c1ccc(CN2CC=C(c3ccc(F)cc3)CC2)cc1	inconclusive [inhibitor, partial curve]	–
Cc1nn(C)c(C)c1/C=C1/CC2C3CC=C4CC(O)CCC4(C)C3CCC2(C)C1=O (configuration not stated)	inconclusive [inhibitor, single point]	–
COCCn1c(C)c(C)c2c(NCCc3ccccc3)ncnc21	inconclusive [inhibitor, single point]	–
C/C=C/c1ccc(OCCCCn2cncn2)c(OC)c1	inconclusive [inhibitor, partial curve]	–
COc1ccc(CC(=O)O/N=C(\N)c2ccc(OC)cc2)cc1	–	inactive: 49.3%
O=c1cc(-c2ccc(O)cc2)oc2c(C3OCC(O)C(O)C3O)c(O)c(C3OC(CO)C(O)C(O)C3O)c(O)c12 (configuration not stated)	inconclusive [inhibitor, single point]	–
O=C1c2cccc(NCCCNCCO)c2C(=O)c2cccc(NCCCNCCO)c21	inconclusive [inhibitor, single point]	–

SMILES	Potency	activity change, negative = inhibition
CCCCn1c(NC(=S)Nc2ccccc2)nc2ccccc21	inconclusive [inhibitor, single point]	–
COc1cc(OC)cc(C(=O)NCC2CCCN(C(=O)c3csc(C(C)C)n3)C2)c1 (configuration not stated)	–	inactive: 2.96%
Cc1ccc(C(=O)CC(Nc2ccc(F)cc2)c2ccccc2)cc1 (configuration not stated)	inconclusive [inhibitor, partial curve]	–
COc1ccc(NC(C)C(=O)N/N=C/c2ccccc2OCc2cccc(Br)c2)cc1 (configuration not stated)	inconclusive [inhibitor, full curve]	–
COc1ccc(C2=NN(c3ccc(C=O)cc3)C(c3ccccc3)C2)cc1 (configuration not stated)	–	inactive: 93.1%
CN1OC[C@@H]2CN(Cc3ccccc3)[C@H](c3ccc(N4CCCCC4)cc3)C[C@@H]21	inconclusive [inhibitor, single point]	–
COc1ccc(CN(Cc2cccn2C)S(=O)(=O)c2ccccc2)cc1	inconclusive [inhibitor, single point]	–
Cc1oc(-c2ccccc2)nc1Cn1cccc1C1=NC(c2ccccc2)CO1 (configuration not stated)	inconclusive [inhibitor, partial curve]	–
COc1ccc(CNC(=O)C2CCCN(c3ncnc4c3nc3n4CCCCC3)C2)cc1 (configuration not stated)	–	inactive: 7.2%
O=C(Cn1ccc(C(F)(F)F)n1)Nc1ccc(S(=O)(=O)NCc2ccco2)cc1	inconclusive [inhibitor, partial curve]	–
CN1CCN(Cc2ccc3ccccc3c2)CC1	–	inactive: -1.35%
C=CC[C@]12CC=CC(=O)[C@@]1(O)O[C@H](c1ccc(OC)c(OC)c1)[C@H]2C	–	inactive: -0.722%
CCOC(=O)C1CCCc2c1[nH]c1ccc(Cl)cc21 (configuration not stated)	inconclusive [inhibitor, single point]	–
COc1ccc(NC(=O)CSc2nnc(-c3ccccn3)n2-c2ccccc2)cc1OC	inconclusive [inhibitor, partial curve]	–
CCCCNc1nc2ccccc2[nH]1	–	inactive: -0.875%
O=C(Nc1ccc(Cl)cc1)c1cc2nc(-c3ccco3)cc(C(F)(F)F)n2n1	–	inactive: 3.56%
COc1ccc(-c2nc3c4ccccc4[nH]c(=O)n3n2)cc1	inconclusive [inhibitor, single point]	–
CCOc1ccc(/C(C)=N/NC(=O)Cn2nc([N+](=O)[O-])cc2C)cc1	–	inactive: -8.52%
O=C(CN1CCN(Cc2ccccc2)CC1)NC(c1ccccc1)c1ccccc1	inconclusive [inhibitor, partial curve]	–
OC(CNCCC1C=Nc2ccccc21)Cn1c2ccc(Cl)cc2c2cc(Cl)ccc21 (configuration not stated)	inconclusive [inhibitor, single point]	–
COc1ccc(C(=O)CCc2nc3ccccc3s2)cc1	–	inactive: -5.47%
O=C1NC(=O)N(c2cccc(Cl)c2)C(=O)/C1=C\c1ccc(Sc2nc3ccccc3[nH]2)o1	inconclusive [inhibitor, single point]	–
COc1ccc(CCN(Cc2cccs2)S(=O)(=O)c2ccc(S(=O)(=O)N3CCCCCC3)cc2)cc1OC	–	inactive: 3.11%
O=[N+]([O-])c1cccc(CNc2ccc3c(c2)CCC3)c1	inconclusive [inhibitor, single point]	–
